In the RNAGym collection of RNA variant scans (doi:10.1093/nar/gkz1192):
Read counts are not given, so values of variants with three or more changes are uncertain.

B1: CPEB3 Ribozyme (parent)
chain: UAACAGGGGGCCACAGCAGAAGCGUUCACGUCGCAGCCCCUGUCAGAUUCUGGUGAAUCUGCGAAUUCUGCUGUAUAUCUC

Variants of: B1
Experiment: self-cleavage, relative activity (ratio to wild type); higher = more cleavage; in vitro, sequencing
Procedure, shortened: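 After error-prone PCR and barcoding, CPEB3 ribozyme mutant libraries were transcribed with T7 RNA polymerase at 37°C for 5 hours, then given 15 min with DNase I before an EDTA stop, and they cleaved during both steps. Reverse transcription with template switching preceded Illumina sequencing. Relative activity divides a variant's cleaved/total read fraction by the unmutated ribozyme's. At least 5 reads were required per variant, and three batches were averaged.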
In the case of A18G A28G U41A A47U U66A, the self-cleavage is reported as 0.05. Work on A18G A28G U43A yielded a self-cleavage of 0.27. A18G A28G U48C A56U U67A gave a self-cleavage of 0.05. A18G A28G U54G A56U A57G A77U gave a self-cleavage of 0.11. With A18G A28G U60C C68U the self-cleavage was 0.08. In the case of A18G A28G U69C A77G, the self-cleavage is reported as 0.94. A18G A28G U72C U78A U80A gave a self-cleavage of 0.26. Variant A18G A28U U54A U80A has a self-cleavage of 0.51. A18G A28U U69G showed a self-cleavage of 0.21. For A18G A35C U72A C79A, the self-cleavage was 0.15. With A18G A35G A45U G63A U80G the self-cleavage was 0.15. With A18G A35G A45U U48A U69A the self-cleavage was 0.17. With A18G A35G C37A U41C G61U A77G the self-cleavage was 0.25. For A18G A35G U41A A45G U67G, the self-cleavage was 0.4. A18G A35G U48C U72A showed a self-cleavage of 0.23. A18G A35G U49A U60C gave a self-cleavage of 0.19. For A18G A35G U51A U58C, the self-cleavage was 0.64. Variant A18G A35G U58C A77U has a self-cleavage of 0.79. Variant A18G A35U A64G has a self-cleavage of 0.17. Variant A18G A35U A77G has a self-cleavage of 0.22. A18G A35U C44A A75U U76A showed a self-cleavage of 0.06. A18G A35U C50U showed a self-cleavage of 0.12. Work on A18G A35U C68A yielded a self-cleavage of 0.07. A18G A35U U48A U60A A77G U78C showed a self-cleavage of 0.05. A18G A35U U67C gave a self-cleavage of 0.05. Variant A18G A45G A47G U69C has a self-cleavage of 0.25. For A18G A45G A56G U72A U78C, the self-cleavage was 0.06. Work on A18G A45G A57G U74C yielded a self-cleavage of 0.64. A18G A45G A64G gave a self-cleavage of 0.41. Variant A18G A45G G46A has a self-cleavage of 0.06. Variant A18G A45G G52A A56G A57G has a self-cleavage of 0.12. With A18G A45G U67A U72C the self-cleavage was 0.23. Work on A18G A45U A47U U67C yielded a self-cleavage of 0.1. A18G A45U U51C U60C gave a self-cleavage of 0.11. Work on A18G A45U U54G U74A yielded a self-cleavage of 0.12. Variant A18G A47G A65U has a self-cleavage of 0.36. For A18G A47G G61U U72C, the self-cleavage was 0.2. A18G A47G U51A U60C A65G U69A showed a self-cleavage of 0.19. In the case of A18G A47U U48A U54C A56G U67C, the self-cleavage is reported as 0.13. A18G A47U U49C gave a self-cleavage of 0.09. In the case of A18G A56G U72A U74A U78C, the self-cleavage is reported as 0.24. For A18G A56U U69A U74C, the self-cleavage was 0.28. Work on A18G A57G C68G U69A yielded a self-cleavage of 0.19. A18G A57G U60A A64U U74C gave a self-cleavage of 0.29. For A18G A57G U80A, the self-cleavage was 0.83. With A18G A64G U69C U74C A75U the self-cleavage was 0.94. Work on A18G A64G U80A yielded a self-cleavage of 0.7. A18G A65G U69C U74C U78C gave a self-cleavage of 0.86. With A18G A65G U80A the self-cleavage was 0.35. In the case of A18G A77U U80C, the self-cleavage is reported as 1.07. For A18G C23A U41G A64G, the self-cleavage was 0.1. A18G C23U A28G U41A G46A gave a self-cleavage of 0.06. A18G C23U A45G C62A U74C gave a self-cleavage of 0.15. Work on A18G C23U A57G U80C yielded a self-cleavage of 0.18. With A18G C23U A65G U67C the self-cleavage was 0.2. With A18G C23U U78A the self-cleavage was 0.12. For A18G C27A U41C U72A, the self-cleavage was 0.17. With A18G C27U U43C C81U the self-cleavage was 0.08. For A18G C29A U72A U80C, the self-cleavage was 0.5. In the case of A18G C29G A65G, the self-cleavage is reported as 0.26. In the case of A18G C29U G61A C62U, the self-cleavage is reported as 0.27. Variant A18G C29U U41A U54C has a self-cleavage of 0.11. Variant A18G C29U U41C U43C A56G has a self-cleavage of 0.2. In the case of A18G C29U U49C A57U U66C U69A, the self-cleavage is reported as 0.12. A18G C29U U49C A57U U67C showed a self-cleavage of 0.06. Work on A18G C32A U41C U60A yielded a self-cleavage of 0.13. In the case of A18G C32A U43C C81A, the self-cleavage is reported as 0.12. With A18G C32A U67A U76C the self-cleavage was 0.11. Variant A18G C32G A65G has a self-cleavage of 0.26. A18G C32U C40U U67C gave a self-cleavage of 0.08. Variant A18G C32U C62U has a self-cleavage of 0.15. Variant A18G C34G U54C has a self-cleavage of 0.06. In the case of A18G C34G U78G, the self-cleavage is reported as 0.13. Work on A18G C38A U72G yielded a self-cleavage of 0.03. Work on A18G C38U G46C A47G U58C yielded a self-cleavage of 0.08. For A18G C39A U74A, the self-cleavage was 0.13. Variant A18G C40A U41A A64G has a self-cleavage of 0.22. In the case of A18G C40U U43C U66C, the self-cleavage is reported as 0.12. In the case of A18G C44A U48A G55U, the self-cleavage is reported as 0.11. Work on A18G C44U U66A yielded a self-cleavage of 0.07. A18G G19C C23U U66C U69C A75U gave a self-cleavage of 0.08. Work on A18G G19U C40U U60C yielded a self-cleavage of 0.06. For A18G G24A A28U U69C, the self-cleavage was 0.18. Variant A18G G24A C44A has a self-cleavage of 0.07. A18G G30A A35G U54C A57U U66C U69C gave a self-cleavage of 0.12. Work on A18G G30A A56U A65G yielded a self-cleavage of 0.06. A18G G30U A45G A65G U74C gave a self-cleavage of 0.19. Work on A18G G30U A56G U67C yielded a self-cleavage of 0.13. A18G G30U U58C U60A C68A showed a self-cleavage of 0.25. For A18G G33A A35G, the self-cleavage was 0.24. A18G G33A A47U gave a self-cleavage of 0.12. In the case of A18G G33A C44U A65G, the self-cleavage is reported as 0.05. Work on A18G G33C U49A G61C G70A yielded a self-cleavage of 0.14. A18G G36A U41C gave a self-cleavage of 0.52. For A18G G36A U43C A57G U58C A65G, the self-cleavage was 0.06. A18G G36A U49C A57G A77C showed a self-cleavage of 0.07. With A18G G36U C40G U72C the self-cleavage was 0.06. With A18G G36U U43A C62U the self-cleavage was 0.11. A18G G46A A57U U76C gave a self-cleavage of 0. A18G G52A A64U G70A U74C U80A gave a self-cleavage of 0.2. In the case of A18G G63C U69C, the self-cleavage is reported as 0.65. With A18G G63U A77G the self-cleavage was 1. With A18G G70U U80C the self-cleavage was 0.17. Variant A18G U25A A35G U48C U51A has a self-cleavage of 0.21. For A18G U25A U26C U31A U69A, the self-cleavage was 0.24. With A18G U25A U41C U49A G52C U74C the self-cleavage was 0.06. For A18G U25A U58C, the self-cleavage was 0.22. In the case of A18G U25C A28U G42U A45U A56G U72C, the self-cleavage is reported as 0.13. For A18G U25C A35U, the self-cleavage was 0.27. For A18G U25C A57G A77G, the self-cleavage was 0.24. A18G U25C A57G U58C U69C A77U U78C gave a self-cleavage of 0.12. Work on A18G U25C A57G U67C yielded a self-cleavage of 0.08. In the case of A18G U25C C32A U49C U78C, the self-cleavage is reported as 0.04. A18G U25C C38U U51C A56G showed a self-cleavage of 0.08. A18G U25C G30A A45U C68G U69C showed a self-cleavage of 0.07. In the case of A18G U25C G61A, the self-cleavage is reported as 0.17. With A18G U25C U43C A57G the self-cleavage was 0.06. A18G U25C U51C A75G showed a self-cleavage of 0.14. A18G U26A A56G U58C U76A showed a self-cleavage of 0.11. A18G U26A C34G G36A showed a self-cleavage of 0.04. A18G U26A U31C U72A gave a self-cleavage of 0.09. For A18G U26A U58C, the self-cleavage was 0.33. Variant A18G U26A U67A U69A has a self-cleavage of 0.15. Work on A18G U26C A47U U48A U54A yielded a self-cleavage of 0.06. Variant A18G U26C C27A A47G A56G has a self-cleavage of 0.17. For A18G U26C C68A U69C U80A, the self-cleavage was 0.2. A18G U26C U41C U49A showed a self-cleavage of 0.14. With A18G U26C U43C U67C the self-cleavage was 0.12. With A18G U26C U49A G63U U67C the self-cleavage was 0.08. In the case of A18G U26C U80C, the self-cleavage is reported as 0.31. Work on A18G U31A A47G A65G yielded a self-cleavage of 0.11. Variant A18G U31A A56U has a self-cleavage of 0.31. In the case of A18G U31A U43C U60C, the self-cleavage is reported as 0.03. With A18G U31A U51C the self-cleavage was 0.22. A18G U31C A35U G73A showed a self-cleavage of 0.05. For A18G U31C C32A A64G, the self-cleavage was 0.19. In the case of A18G U31C C38A U41C U78C, the self-cleavage is reported as 0.07. Variant A18G U31C U48C U54A has a self-cleavage of 0.09. A18G U31C U54A U58A U72C gave a self-cleavage of 0.07. A18G U31C U66G U69C showed a self-cleavage of 0.12. In the case of A18G U41A A47G, the self-cleavage is reported as 0.23. In the case of A18G U41A A65G, the self-cleavage is reported as 0.13. Variant A18G U41A G70A U72C has a self-cleavage of 0.23. For A18G U41A U43C A56G A57G A64U, the self-cleavage was 0.06. In the case of A18G U41A U48C U60C U80A, the self-cleavage is reported as 0.2. Variant A18G U41A U49C A56G U69A U72C has a self-cleavage of 0.07. In the case of A18G U41A U60A A64G U74G, the self-cleavage is reported as 0.17. Variant A18G U41A U60C has a self-cleavage of 0.07. A18G U41A U60C U76A A77G gave a self-cleavage of 0.08. Work on A18G U41A U69A yielded a self-cleavage of 0.14. Work on A18G U41A U69C yielded a self-cleavage of 0.25. In the case of A18G U41C A47G U72C, the self-cleavage is reported as 0.37. A18G U41C A65G gave a self-cleavage of 0.36. Variant A18G U41C C62G U72G has a self-cleavage of 0.15. A18G U41C G55A showed a self-cleavage of 0.15. A18G U41C U43A showed a self-cleavage of 0.33. Variant A18G U41C U48C A57G A64G has a self-cleavage of 0.4. With A18G U41C U54C A64G U78C the self-cleavage was 0.18. Work on A18G U41C U80A yielded a self-cleavage of 0.91. With A18G U41G A45C A56U the self-cleavage was 0.14. In the case of A18G U41G A57G, the self-cleavage is reported as 0.08. Variant A18G U43A C62U has a self-cleavage of 0.12. For A18G U43C A47C, the self-cleavage was 0.2. In the case of A18G U43C A64U U67C, the self-cleavage is reported as 0.08. With A18G U43C U51C A57G U67A the self-cleavage was 0.13. With A18G U43C U69A the self-cleavage was 0.31. For A18G U43G C44G U69C A77G U80C, the self-cleavage was 1.02.
